The results in this text go back to the supplement of paper PMC3334620.

Whole data set: some 33,000 sequences, median “E-score (-0.5 to 0.5)” near -0.016, cut for the highest 2% near 0.31. The list shows a part of the results.

In this experiment the target is Cst6 (UniProt P40535). The experiment can be described thus: PBM E-score (8-mer binding enrichment) (E-score (-0.5 to 0.5)); higher = stronger / more preferred TF binding; most listed sequences are background and not binding sites. Conditions: protein concentration: 200 nM; construct: GST-DNA-binding domain. Here is the method: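 Universal 'all 10-mer' protein binding microarrays (Agilent AMADID 015681) probed with GST-tagged S. cerevisiae TFs (full-length or DBD) made by in vitro transcription/translation (PURExpress), about 100-200 nM. Bound TF was detected with fluorescent anti-GST. Each ungapped 8-mer (which stands for itself and its reverse complement) is scored by the PBM enrichment score (E-score), a modified Wilcoxon-Mann-Whitney statistic from -0.5 to +0.5, computed with the Universal PBM Analysis Suite. Scale: above 0.35 generally sequence-specific binding.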
Consider CACCCACA, for which the “PBM E-score” value worked out at 0.0319.

Consider CCACGGGA, for which the “PBM E-score” value is -0.195.

In the case of GATTATCC, the “PBM E-score” value was -0.0969.

With ATTAGGGG, the “PBM E-score” value was -0.244.

Consider CGCCCCCA, for which the “PBM E-score” value is -0.282.

Consider GCTACTAA, for which the “PBM E-score” value was 0.0534.

Consider ATAGCATA, for which the “PBM E-score” value came to 0.0409.

For the sequence GGAGCCAA, the “PBM E-score” value was -0.27.

For the sequence GCCGGGGA, the “PBM E-score” value was -0.179.

Take AACGCGGA: the “PBM E-score” value turned out to be 0.165.

On to ACCCGAAC, for which the “PBM E-score” value was -0.0669.

Regarding ATGGTACA, the “PBM E-score” value is -0.0315.

As for AGGGGTTG, the “PBM E-score” value is -0.151.

For the sequence TGCGACAA, the “PBM E-score” value turned out to be 0.0517.

Turning to GAAGAAGC, the “PBM E-score” value was -0.109.

Consider AATATCAT, for which the “PBM E-score” value was determined as 0.302.

For ACTCAACT, the “PBM E-score” value came to 0.0493.

Turning to TCCACAAA, the “PBM E-score” value stood at 0.119.

On to AATCCTAA, for which the “PBM E-score” value was -0.137.

Turning to AGACAGTA, the “PBM E-score” value stood at 0.0472.

Turning to AGGGGTAG, the “PBM E-score” value is -0.359.

Consider GATTTTCA, for which the “PBM E-score” value turned out to be 0.229.

As to GAAAGCTA, the “PBM E-score” value was -0.229.

With AACGTCTG, the “PBM E-score” value amounted to 0.0755.

Take ACCCTACA: the “PBM E-score” value was -0.0198.

With CCGCAGGC, the “PBM E-score” value stood at 0.0325.

Take CATTCGAC: the “PBM E-score” value was 0.11.

In the case of AAGCAGAA, the “PBM E-score” value stood at 0.0491.

Consider AATTGGGC, for which the “PBM E-score” value amounted to 0.00688.

Regarding CCTAGTGC, the “PBM E-score” value is -0.0573.

Consider AAGCCACT, for which the “PBM E-score” value is -0.0574.

As to ACCCCTCC, the “PBM E-score” value was -0.249.

Take ACGAGACT: the “PBM E-score” value was -0.0502.

On to CTAGCAAA, for which the “PBM E-score” value was determined as 0.0539.

Consider AAGGAGAT, for which the “PBM E-score” value was found to be 0.0396.

As to CGGGGCAC, the “PBM E-score” value is -0.135.

Take CCGGAATC: the “PBM E-score” value is -0.294.

On to CTACGGCC, for which the “PBM E-score” value was -0.141.

Turning to CGTTCCCC, the “PBM E-score” value is -0.241.

In the case of TGAATGCA, the “PBM E-score” value was 0.108.

As to GGTAACGA, the “PBM E-score” value is 0.022.

Take ACGTATGA: the “PBM E-score” value came out at 0.432.

Regarding ACGATTTA, the “PBM E-score” value was found to be 0.291.

For GGAATCCA, the “PBM E-score” value was -0.12.

For the sequence GCTACTCC, the “PBM E-score” value is -0.327.

As to CTGTAAAA, the “PBM E-score” value came out at 0.148.

For ACAGTATA, the “PBM E-score” value is 0.129.

With AGCTCGAT, the “PBM E-score” value is -0.0716.

On to GATCTGGA, for which the “PBM E-score” value was -0.0809.

On to GAAGCTAA, for which the “PBM E-score” value was -0.0787.

Consider GCTATCAA, for which the “PBM E-score” value turned out to be 0.0391.

For the sequence AGGTTATG, the “PBM E-score” value was 0.0904.

Consider CGCGCGTA, for which the “PBM E-score” value is 0.0723.

For the sequence AACAAATC, the “PBM E-score” value is 0.156.

Take GTCTACCA: the “PBM E-score” value was -0.0295.

TGTCTCAA: the “PBM E-score” value was -0.104.

For TATACCAA, the “PBM E-score” value worked out at 0.159.

For the sequence AGTTCTCA, the “PBM E-score” value stood at 0.00496.

Consider CGGCGAAG, for which the “PBM E-score” value was -0.0324.

With GTATTGAA, the “PBM E-score” value is 0.15.

AAAAAATA: the “PBM E-score” value is 0.254.

TCTGGCAA: the “PBM E-score” value is -0.206.

For the sequence AGAACGCC, the “PBM E-score” value is -0.0217.

In the case of AATGTAAT, the “PBM E-score” value came to 0.347.

As for CCGCGTCC, the “PBM E-score” value was determined as 0.099.

Turning to GATTAACC, the “PBM E-score” value was -0.185.

On to AATGCAAA, for which the “PBM E-score” value turned out to be 0.239.

With GGCATGAA, the “PBM E-score” value is 0.134.

On to ACACCCTG, for which the “PBM E-score” value is -0.275.

On to AATTCTCG, for which the “PBM E-score” value stood at 0.0737.

On to CCCCCGTC, for which the “PBM E-score” value is -0.348.

As to GGCATCTA, the “PBM E-score” value came out at 0.102.

In the case of GGACGTCA, the “PBM E-score” value was 0.468.

Regarding ATTCTTAG, the “PBM E-score” value amounted to 0.0174.

In the case of ACAAACTA, the “PBM E-score” value amounted to 0.0731.

AATAGATA: the “PBM E-score” value amounted to 0.303.

Regarding GTCACGTA, the “PBM E-score” value came out at 0.224.

For CTCGCGAG, the “PBM E-score” value was -0.0842.

Take AATGTTGT: the “PBM E-score” value is 0.108.

With CTCTCCCC, the “PBM E-score” value was -0.344.

Regarding CGTCACGA, the “PBM E-score” value amounted to 0.449.

Regarding CGGCTACA, the “PBM E-score” value was 0.0164.

As for GCTTTTCA, the “PBM E-score” value was determined as 0.0237.

For AGGCACTC, the “PBM E-score” value is -0.11.

As to AATCCGGG, the “PBM E-score” value is -0.22.

ACCCTGTC: the “PBM E-score” value is -0.281.
